{"source": "PubChem BioAssay AID624417", "about": "(National Center for Advancing Translational Sciences (NCATS), 2012)", "note": "Out of some 410,000 compounds screened, about 6,400 (1.6%) were called active. Inconclusive results, whose numbers are uncertain, are shown with a selection of clear calls. Calls follow the shape of the dose curve; as a rule, active = well fitted inhibition curve with a large enough effect; inconclusive = small, poorly fitted or top-dose-only effect; inactive = no such curve, though single readings can be large or run the other way. Potencies of inconclusive entries are left out as doubtful fits. % is scaled to controls: 0 for no effect and ±100 for the full control effect; potency is read from the fitted curve at half-maximal effect; tags tell the direction and shape of the fitted curve.", "data": [{"target": "Glucagon-like peptide 1 receptor (Homo sapiens) (UniProt P43220)", "sequence (P43220 whole entry, looked up)": "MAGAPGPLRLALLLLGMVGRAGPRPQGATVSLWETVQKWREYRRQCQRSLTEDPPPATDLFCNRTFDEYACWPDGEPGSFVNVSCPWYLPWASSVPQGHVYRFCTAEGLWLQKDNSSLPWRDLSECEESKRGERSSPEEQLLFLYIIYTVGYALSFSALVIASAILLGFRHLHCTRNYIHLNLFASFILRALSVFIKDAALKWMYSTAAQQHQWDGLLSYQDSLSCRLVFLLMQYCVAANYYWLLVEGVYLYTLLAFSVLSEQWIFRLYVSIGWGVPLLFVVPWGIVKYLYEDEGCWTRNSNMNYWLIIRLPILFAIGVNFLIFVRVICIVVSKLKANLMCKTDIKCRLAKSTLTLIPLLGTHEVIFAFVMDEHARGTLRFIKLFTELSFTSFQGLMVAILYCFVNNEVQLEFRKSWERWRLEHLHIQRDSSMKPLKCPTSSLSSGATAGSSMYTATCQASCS", "experiment": "qHTS of GLP-1 Receptor Inverse Agonists (Inhibition Mode); also: nearly all actives have a fitted effect of over 55% in size", "details": "HEK293 GLP-1R CRE-luciferase, luminescence, 24 h, GLP-1R form is constitutively active; activity change, negative = inhibition: at 38.3 µM (top of the series) unless noted", "method_in_brief": "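Inverse agonists were sought by their lowering of basal cAMP reporter luciferase output in HEK293 cells stably carrying constitutively active human GLP-1R, after 24 h compound treatment.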", "values": [{"smiles": "CC1CCN(c2c(NCc3ccc(C(=O)N4CCc5ccccc54)cc3)c(=O)c2=O)CC1", "Potency": "inconclusive [inhibitor, full curve, poor fit]"}, {"smiles": "O=S1(=O)CC(N2CCN(Cc3ccccc3F)CC2)CN1Cc1cn(Cc2ccccc2)nn1", "note": "(stereo not given)", "activity change, negative = inhibition": "inactive: 0.366%"}, {"smiles": "CCc1nnc(NC(=O)CN2CCN(Cc3cccc(Cl)c3)CC2)s1", "Potency": "inconclusive [inhibitor, partial curve, poor fit]"}, {"smiles": "O=C(NC1(C(F)(F)F)C(=O)Nc2c1c(=O)[nH]c(=O)n2Cc1ccccc1)c1ccc(Cl)cc1Cl", "note": "(stereo not given)", "Potency": "inconclusive [inhibitor, single point]"}, {"smiles": "CN(C)c1ccc(/C=C/c2ccc3c4ccccc4ccc3[n+]2-c2ccccc2)cc1", "Potency": "inconclusive [inhibitor, partial curve, poor fit]"}, {"smiles": "c1coc(CNc2nc(N3CCCCC3)nc3ccccc23)c1", "Potency": "inconclusive [inhibitor, partial curve, poor fit]"}, {"smiles": "CC(=O)c1sc(N/N=C\\c2cccc(Br)c2)nc1C", "Potency": "inconclusive [inhibitor, single point]"}, {"smiles": "COC(=O)CNC(=O)Nc1cc(C(=O)NCc2ccc(C)cc2)ccc1N1CCCC1", "activity change, negative = inhibition": "inactive: 10.9%"}, {"smiles": "COCCN(C(=O)Cc1cccs1)C(C(=O)NCc1ccc(OC)cc1)c1ccccc1", "note": "(stereo not given)", "Potency": "inconclusive [inhibitor, single point]"}, {"smiles": "S=C(NCc1ccccc1)NC1CCSc2ccccc21", "note": "(stereo not given)", "Potency": "inconclusive [inhibitor, partial curve, poor fit]"}, {"smiles": "COc1cc(/C=N/NC(=O)c2ccc(O)cc2)ccc1Oc1ccc([N+](=O)[O-])cn1", "Potency": "inconclusive [inhibitor, single point]"}, {"smiles": "COCC(C)n1c(C)cc(C(=O)CSc2nnc(-c3ccco3)o2)c1C", "note": "(stereo not given)", "Potency": "inconclusive [inhibitor, partial curve, poor fit]"}, {"smiles": "O=C(c1cc2ccccc2o1)N(Cc1ccco1)Cc1cccs1", "Potency": "inconclusive [inhibitor, partial curve, poor fit]"}, {"smiles": "Cc1cccc(OCCNS(=O)(=O)c2ccc(Cl)cc2)c1", "Potency": "inconclusive [inhibitor, single point]"}, {"smiles": "CCOC(=O)c1noc2ncnc(N3CCN(c4ccccc4OC)CC3)c12", "Potency": "inconclusive [inhibitor, full curve]"}, {"smiles": "COc1ccc(C(=O)N2CCN(Cc3cn[nH]c3-c3ccc(OC)cc3F)CC2)cc1", "activity change, negative = inhibition": "inactive: 3.38%"}, {"smiles": "CC1Cc2ccccc2N1C(=O)CSc1nc2ccccc2s1", "note": "(stereo not given)", "Potency": "inconclusive [inhibitor, single point]"}, {"smiles": "CC(C)C(C(=O)O)N1C(=O)C2C3CCC(C3)C2C1=O", "note": "(stereo not given)", "activity change, negative = inhibition": "inactive: 19%"}, {"smiles": "CCOCCCNC(=O)c1ccc2c(c1)N=C(CC)c1cc(Br)ccc1S2", "Potency": "inconclusive [inhibitor, full curve, poor fit]"}, {"smiles": "Cc1cc(C)c(NC(=O)CS(=O)CC(=O)N2CCN(c3cccc(C)c3C)CC2)c(C)c1", "note": "(stereo not given)", "Potency": "inconclusive [inhibitor, single point]"}, {"smiles": "CCOC(=O)c1c(C)c(-c2ccccc2)n(CC(=O)Nc2cc(OC)cc(OC)c2)c1C", "Potency": "inconclusive [inhibitor, partial curve, poor fit]"}, {"smiles": "Cc1ccc2oc(-c3ccc(NC(=O)CC(C)C)cc3)nc2c1", "activity change, negative = inhibition": "inactive: -0.266%"}, {"smiles": "Cc1ccc(CN2CCC(CNc3ncnc4onc(-c5ccc(Cl)cc5)c34)CC2)cc1", "activity change, negative = inhibition": "inactive: 4.63%"}, {"smiles": "COc1cc2c3c(c1)C1(C(=O)N3C(C)(C)C=C2C)C(C#N)=C(N)Oc2cc(C)oc(=O)c21", "note": "(stereo not given)", "Potency": "inconclusive [inhibitor, partial curve, poor fit]"}, {"smiles": "CC1(c2ccc(Cl)cc2)CC(C)(C)N(C(=O)c2ccccc2)c2ccccc21", "note": "(stereo not given)", "Potency": "inconclusive [inhibitor, single point]"}, {"smiles": "O=C(c1ccc(-c2ccccc2)cc1)N1CCN(c2ccccn2)CC1", "Potency": "inconclusive [inhibitor, single point]"}, {"smiles": "c1ccc(OCc2nc(-c3ccncc3)no2)cc1", "activity change, negative = inhibition": "inactive: 2.13% [at 0.307 µM]"}, {"smiles": "OC(CNCCc1ccc(C(F)(F)F)cc1)COC(c1ccccc1)c1ccccc1", "note": "(stereo not given)", "Potency": "inconclusive [inhibitor, partial curve, poor fit]"}, {"smiles": "COc1ccc(C(O)(CCC(C)C)C(CN2CCOCC2)c2ccc(Cl)cc2)cc1", "note": "(stereo not given)", "Potency": "inconclusive [inhibitor, full curve, poor fit]"}, {"smiles": "CCc1nc2ccc(C(=O)NCCC(C)C)cn2c1N(CC)CCOC", "activity change, negative = inhibition": "inactive: 26.1%"}, {"smiles": "CCN(CC)CCCC(C)n1c2nc(=O)[nH]c(=O)c-2nc2cc(Cl)ccc21", "note": "(stereo not given)", "Potency": "inconclusive [inhibitor, single point]"}, {"smiles": "CCCN(C(=O)CCl)C1=CCCCC1", "Potency": "inconclusive [inhibitor, partial curve, poor fit]"}, {"smiles": "CCc1nc2c(OCc3ccccc3)cccn2c1N(Cc1ccccc1)C(C)=O", "Potency": "inconclusive [inhibitor, single point]"}, {"smiles": "COc1ccc(CCn2c(C)cc(C(=O)CN3C(=O)C(=O)N(Cc4ccco4)C3=O)c2C)cc1", "Potency": "inconclusive [inhibitor, full curve, poor fit]"}, {"smiles": "Cc1nn2c(NCc3ccccn3)c3c(nc2c1-c1ccccc1)CCC3", "Potency": "inconclusive [inhibitor, full curve, poor fit]"}, {"smiles": "COc1ccc(-c2csc(NC(C)c3nc4cc(C(F)(F)F)ccc4n3CCOCCO)n2)cc1", "note": "(stereo not given)", "Potency": "inconclusive [inhibitor, single point]"}, {"smiles": "Cc1cccc(NC(=O)c2ccc(S(=O)(=O)N3CCCCC3C)cc2)n1", "note": "(stereo not given)", "Potency": "inconclusive [inhibitor, single point]"}, {"smiles": "Cc1ccc(OCc2nc3ccccc3n2CC(C)C)cc1", "Potency": "inconclusive [inhibitor, single point]"}, {"smiles": "CC1(c2ccc3c(c2)OCO3)NC(=O)N(CC(=O)Nc2ccccc2[N+](=O)[O-])C1=O", "note": "(stereo not given)", "activity change, negative = inhibition": "inactive: 6.87%"}, {"smiles": "COc1cc(NC(=O)c2ccc(S(=O)(=O)N(C)c3ccccc3OC)cc2)cc(OC)c1", "Potency": "active: 7.94 µM"}]}]}
